Laboratory results taken from PubChem BioAssay AID1645882 (National Center for Advancing Translational Sciences (NCATS), 2021).
Out of some 16,000 compounds screened, about 120 (0.75%) were called active. About 4% were inconclusive and are not listed. The call rests on the fitted dose curve; in most records, active means well fitted inhibition curve with a large enough effect; inconclusive means small, poorly fitted or top-dose-only effect; inactive means no such curve, though single readings can be large or run the other way. This is one part of the list.

Target: Rap guanine nucleotide exchange factor 3 (Homo sapiens) (UniProt O95398)
Sequence of UniProt O95398 (O95398 whole entry, looked up): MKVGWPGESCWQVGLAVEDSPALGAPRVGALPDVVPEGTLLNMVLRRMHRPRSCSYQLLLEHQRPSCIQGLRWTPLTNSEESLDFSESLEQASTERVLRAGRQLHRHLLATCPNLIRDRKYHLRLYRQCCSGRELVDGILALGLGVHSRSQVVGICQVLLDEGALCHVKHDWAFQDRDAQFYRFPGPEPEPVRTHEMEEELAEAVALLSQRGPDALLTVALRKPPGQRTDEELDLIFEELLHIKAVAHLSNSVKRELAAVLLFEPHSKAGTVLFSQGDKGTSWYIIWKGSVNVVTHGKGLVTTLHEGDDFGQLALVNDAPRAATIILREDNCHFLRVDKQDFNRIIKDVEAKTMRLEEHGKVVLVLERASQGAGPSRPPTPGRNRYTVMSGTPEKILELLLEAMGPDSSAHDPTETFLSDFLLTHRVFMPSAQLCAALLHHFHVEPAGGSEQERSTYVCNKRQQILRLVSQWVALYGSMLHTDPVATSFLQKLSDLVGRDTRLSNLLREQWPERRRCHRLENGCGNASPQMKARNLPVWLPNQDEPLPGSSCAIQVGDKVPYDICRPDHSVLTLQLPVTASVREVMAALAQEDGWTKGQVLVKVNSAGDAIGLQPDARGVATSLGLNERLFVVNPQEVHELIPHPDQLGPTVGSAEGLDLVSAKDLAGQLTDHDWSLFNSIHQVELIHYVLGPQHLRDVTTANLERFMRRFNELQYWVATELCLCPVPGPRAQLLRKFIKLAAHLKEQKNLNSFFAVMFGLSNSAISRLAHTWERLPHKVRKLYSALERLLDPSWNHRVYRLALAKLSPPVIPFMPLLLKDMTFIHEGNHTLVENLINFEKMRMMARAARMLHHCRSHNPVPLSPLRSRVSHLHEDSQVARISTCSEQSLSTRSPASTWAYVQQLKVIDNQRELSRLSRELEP
Assay: Validation qHTS for antagonist of cAMP-regulated guanine nucleotide exchange factor 3 (EPAC1);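 further: plate controls were DMSO for no effect and ATA control for full effect; nearly all actives have a fitted effect of over 75% in size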
Conditions: EPAC1 Rap1B-BODIPY-GDP exchange, fluorescence; series mostly up to 150 µM; activity change, negative = inhibition: at the top concentration
Summary of the method: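 Nucleotide exchange followed as fluorescence loss when BODIPY-GDP leaves Rap1B (480 nm excitation, 540 nm emission), read at 5 min intervals over 30 min. Reaction: 100 nM EPAC1, 250 nM RAP1B-BODIPY-GDP, 50 uM GDP; ATA and DMSO define normalization.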

Activity change, negative = inhibition, inactive:
CN(C(=O)C(Cl)Cl)c1ccc(OC(=O)c2ccco2)cc1 -11.5%, NC[C@](O)(CS(=O)(=O)O)c1ccc(Cl)cc1 2.81%, C[Si](C)(C)O[Si](C)(C)C 3.74%, COc1cc(-c2noc(C)c2C#Cc2ccccn2)cc(OC)c1OC -0.0485%, O=C(C[N+]12CCCc3cccc(c31)CCC2)c1ccc2ccc3cccc4ccc1c2c34 4.76%, Cc1nc2cnc(OCc3ccccc3)nc2n(Cc2ccc(F)cc2)c1=O -26.2%, N#Cc1cccc(-c2nc3cnc(N4CCOCC4)nc3n(Cc3ccc(F)cc3)c2=O)c1 7.94%, COc1ccc(CNc2nc(-c3ccc(C(=O)N(C)C)cc3)nc3ccccc23)c(OC)c1 -17.5%, Cc1oc(-c2ccccc2NC(=O)C2CCCO2)nc1CNC(=O)c1cc(Cl)ccc1F (stereo not given) 5.05%, Cc1cc(=O)c(C(=O)N(C)CCc2ccccn2)c2n1-c1ccccc1SC(c1ccsc1)C2 (stereo not given) 5.21%, Nc1ccn([C@H]2CC[C@@H](CO)O2)c(=O)n1, COc1cc(=O)n2c(c1C(=O)NC(C)c1ccco1)CCN(C(=O)c1cccc(C)c1)CC2 (stereo not given) 12.1%, CC(C)(CNC(=O)c1cnn(-c2nccc(-c3cccs3)n2)c1C1CC1)N1CCOCC1 14.5%, C[C@@H]1CCN(C(=O)[C@H](CCCN=C(N)N)NS(=O)(=O)c2cccc3c2NC[C@H](C)C3)[C@@H](C(=O)O)C1 6.64%, O=C(c1cccc(F)c1)N1CCC2(CC1)CCN(C(c1ccccc1)c1ccccc1)CC2 -5.92%, COC(=O)CC[C@H](N)C(=O)O 15.8%, CCCC(=O)Nc1c(I)cc(I)c(CC(CC)C(=O)O)c1I (stereo not given) 13.3%, CN(C)C(=O)c1ccc(-c2cc(NCc3cccnc3)ncn2)cc1 0.223%, COc1ccc(NC(=O)N2CC3(CCN(C(=O)c4ccncc4)CC3)C2)cc1 -0.911%, CC(C)[N+]1(C)[C@@H]2CC[C@H]1CC(OC(=O)C(CO)c1ccccc1)C2 (stereo not given in full), C[C@](O)(C(=O)Nc1ccc(S(=O)(=O)c2ccccc2)cc1)C(F)(F)F -9.04%, COC(=O)C1CCN(Cc2ccc3c(c2)CN(C(=O)c2cc(-c4ccc(C)o4)[nH]n2)CCO3)CC1 15.9%, CNC[C@H](O)c1ccc(O)c(O)c1, CC(C)NCC(O)COc1ccccc1-n1cccc1 (stereo not given) 11.4%, Cn1c(=O)c(-c2cc(F)cc(F)c2)nc2cnc(Oc3ccccc3)nc21 9.07%, C=CC(=O)Nc1cc2c(Nc3ccc(F)c(Cl)c3)ncnc2cc1OCCCN1CCOCC1 11.5%, CN(C)c1ncc2nc(-c3ccc(F)cc3)c(=O)n(CCc3ccccc3)c2n1 6.02%, Cc1cccc(N(C)C(=S)Oc2ccc3c(c2)CCC3)c1 16.8%, COc1cccc(-c2nc3cc(SC)ccc3cc2CN(C(=O)c2csc(C)n2)C2CC2)c1 2.09%, COC(=O)Nc1nc2ccc(C(=O)c3cccs3)cc2[nH]1, CN1CCN(CCCN2c3ccccc3Sc3ccc(C(F)(F)F)cc32)CC1, CC(S)C(=O)NCC(=O)O (stereo not given) 18.2%, COc1ccc(OC)c(C(O)CNC(=O)CN)c1 (stereo not given), CCCC(=O)O[C@]1(C(=O)COC(=O)CC)CC[C@H]2[C@@H]3CCC4=CC(=O)CC[C@]4(C)[C@H]3[C@@H](O)C[C@@]21C 27.5%, CN(C)CCN1C(=O)c2ccccc2N(C)c2ccccc21 18.8%, CCCC(=O)OC[C@@H](OC(=O)CCC)[C@@H](OC(=O)CCC)[C@H](Cn1c2nc(=O)[nH]c(=O)c-2nc2cc(C)c(C)cc21)OC(=O)CCC 123%, CC(=O)N1CCC2(CC1)CN(Cc1ccc(C#N)cc1)C2 -12.1%, CN=C(NC#N)NCCSCc1csc(N=C(N)N)n1, Nc1ncc2[nH]cnc2n1 25%, CN1C(=O)C[C@@H](C(=O)N[C@@H](Cc2cnc[nH]2)C(=O)N2CCC[C@H]2C(N)=O)NC1=O 13.1%, COC(=O)[C@]12CCC(C)(C)C[C@@H]1[C@@H]1C(=O)C=C3[C@@]4(C)C=C(C#N)C(=O)C(C)(C)[C@@H]4CC[C@@]3(C)[C@]1(C)CC2 12.4%, Cc1cnc(CNc2ncnc3ccc(-c4ccoc4)cc23)cn1 2.06%, O=c1[nH]c2cc([N+](=O)[O-])c([N+](=O)[O-])cc2[nH]c1=O, Cc1c[nH]c2ccccc12 3.42%, N#CCCn1c(=O)c(-c2ccc(Cl)cc2)nc2cnc(N3CCNCC3)nc21 1.67%, CCCOC(=O)C1NC(=O)N2C(C(=O)OCCC)C(C)(C)S[C@H]12 (stereo not given in full) -1.29%, CC(=O)/C(C)=N\O -10.9%, O=c1cc(-c2ccc(O)cc2)oc2ccc(O)cc12 10.4%, O=C(c1ccccc1)C(O)c1ccccc1 (stereo not given) 2.54%, OCC[N+]1(CCc2ccccc2)CCOCC1 21.5%, Cc1cccc(CNc2cc(-c3ccc(N(C)C)cc3)ncn2)c1 7.49%, C[C@H]1O[C@@H](n2cc(F)c(=O)[nH]c2=O)[C@H](O)[C@H]1O -1.63% [at 75.8 µM], CC(=O)C1=C(O)C=C2Oc3c(C(C)=O)c(O)c(C)c(O)c3[C@]2(C)C1=O 21.7%, COc1ccccc1-c1cncnc1NCc1cnc(C)cn1 -7.99%, Cc1ccc(CN2CCc3nnc(C(NS(C)(=O)=O)C(C)C)n3CC2)cc1C (stereo not given) 10.6%, CCCCCCCCCCCCCCCCOCC(CO)OC (stereo not given) 8.2% [at 15.3 µM], COc1cccc(-c2nc(NCc3ccc(OC)cc3OC)c3ccccc3n2)c1 -8.41%, CCOC(C)=O 3.43%, O=C(CCc1ccc(O)cc1)c1c(O)cc(O)cc1O, O=C(NCC1CCC2(CCN(Cc3cccc4ncccc34)CC2)O1)c1ccccc1 (stereo not given) -13.6%, CN(C)C(=O)c1ccc(-c2cc(Nc3ccccc3)ncn2)cc1 2.57%, CC(=O)N/N=C/c1ccc([N+](=O)[O-])o1 26%, Cc1noc(C)c1-c1ccc2ncnc(NCc3ccccc3)c2c1 18.8%, COc1ccc(-n2c(=O)c(-c3cc(F)cc(F)c3)nc3cncnc32)cc1 13.5%, CN(C)Cc1ccccc1-c1nccc(NCc2cccs2)n1 24.1%, C=CCN1CCc2nc(N)sc2CC1 24.6%, COC(=O)N1CCC2(CC1)CN(c1ccc(-c3ccccc3)cc1)C2 4.19%, c1cnc2c(-c3nccc4c3[nH]c3ccccc34)cccc2c1 -2.57%, CCC1(C2CCN(Cc3cccc4ccccc34)CC2)NC(=O)N(Cc2ccc3c(c2)OCO3)C1=O (stereo not given) -9.16%, Cc1ccc(C(=O)Nc2cccc(-c3nc(CNC(=O)[C@@H]4C[C@@H](C)NC(=S)N4)c(C)o3)c2)s1 3.59%, CN(Cc1ccco1)c1nc(-c2ccoc2)nc2ccccc12 -2.54%, c1ccc2c(NC3CC3)nc(-c3ccoc3)nc2c1 9.84%, CCOC(=O)O[C@]1(C(=O)COC(=O)CC)CC[C@H]2[C@@H]3CCC4=CC(=O)C=C[C@]4(C)[C@H]3[C@@H](O)C[C@@]21C 6.95% [at 75.8 µM], COc1ccc(NC(=O)N2CC[C@@]3(CCCN(C(=O)c4cc(C(F)(F)F)cc(C(F)(F)F)c4)C3)C2)cc1 13.8%, O=C(c1cccc(N2CCCC2=O)c1)N1CCC(Oc2cccc(CN3CCN(c4ccccn4)CC3)c2)CC1 13.5%, NC(N)=NC(N)=NCCc1ccccc1, COc1ccccc1-c1cc(N(C)Cc2ccco2)ncn1 -12.3%, Cn1c(=O)c(-c2cccc(Cl)c2)nc2cncnc21 -2.57%, Cc1cnc(SCC2CCCO2)nc1C1CCCN(C(=O)c2ccc(S(N)(=O)=O)cc2)C1 (stereo not given) 0.839%, C/C=C(\C)C(=O)OC1c2c(ccc3ccc(=O)oc23)OC(C)(C)C1OC(C)=O (stereo not given) 15.6%, CC(=O)NCCCS(=O)(=O)O 7.65%, COc1ccccc1-c1ccnc(-n2ncc(C(=O)NC3CCCN(Cc4ccccc4)C3)c2C)n1 (stereo not given) 16.6%, O=P(O)(O)O -0.768%, COc1ccc2c(c1OC)C(=O)O[C@@H]2[C@H]1c2c(cc3c(c2OC)OCO3)CCN1C, COCCNc1ncnc2ccc(-c3c(C)noc3C)cc12 10.3%, COc1ccc(CNCC(O)COc2ccc3[nH]c(=O)ccc3c2)cc1OC (stereo not given) 36.5%, Cc1cccnc1-c1cccc2c1OC(CNC(=O)Cn1cncn1)C2 (stereo not given) 10.4%, Cc1oc(-c2ccccc2NC(=O)c2ccsc2)nc1CN(C)Cc1ccc2c(c1)CCCN2C 3.32%, O=C(c1csnn1)N1CCC2(CCCN(c3cccc(-c4ccccc4)c3)C2)CC1 6.51%, Cn1c(=O)c(-c2cccs2)nc2cnc(OCc3ccccc3)nc21 8.37%, O=S(=O)(c1ccccc1)N1CCC2(CC1)CN(Cc1nccs1)C2 -0.855%, CC/C=C\C/C=C\C/C=C\CCCCCCCCCC(=O)O 17.8% [at 15.3 µM], N#C/C(=C\c1ccc(-c2cc(Cl)ccc2Cl)o1)C(=O)Nc1cccc2ncccc12 13% [at 75.8 µM], Cc1ccc(C)c(CN2C[C@H](Sc3ccccn3)C[C@H]2C(=O)Nc2ccc3sc(C)nc3c2)c1 32.9%, CN1CCN(c2ncnc3ccc(-c4ccc5c(c4)OCO5)cc23)CC1 14.8%, C[C@@H](CSc1ccccc1)CN1CC[C@H](O)CCC1=O 10.4%, N#Cc1cc2c(OCC(O)CN3CCN(C(c4ccccc4)c4ccccc4)CC3)cccc2[nH]1 (stereo not given), H-LVVYPWTQR-OH -3.11% [at 15.3 µM], CC(C)(C)NCC(O)COc1cccc2c1CCC(=O)N2 (stereo not given) 11.7% [at 75.8 µM], Cc1nc2cnc(N(C)C)nc2n(C[C@H]2CCCO2)c1=O 6.52%, O=C(NCC1Cc2cccc(-c3ccccn3)c2O1)c1cnn2cccnc12 (stereo not given) -13.9%, Cc1cnc(SCc2ccccn2)nc1C1CCCN(C(=O)c2ccc3[nH]c(C)c(C)c3c2)C1 (stereo not given) 13%, Cc1noc(C)c1-c1nc(N2CCN(C)CC2)c2ccccc2n1 12.9%, CN(Cc1ccco1)c1cc(-c2ccccc2C(F)(F)F)ncn1 13.2%, CC(C)C[C@H](NC(=O)[C@H](O)[C@H](N)Cc1ccccc1)C(=O)O -1.22% [at 75.8 µM]
